Data published in the supplement of paper PMC12217912.
The other results are listed elsewhere or left out. The full chains were built here from the parent and the listed change. Values near 0.05 are background.

B1: TEV protease; numbered along this chain (parent)
chain: MGESLFKGPRDYNPISSSICHLTNESDGHTTSLYGIGFGPFIITNKHLFRRNNGTLVVQSLHGVFKVKDTTTLQQHLVDGRDMIIIRMPKDFPPFPQKLKFREPQREERICLVTTNFQTKSMSSMVSDTSCTFPSGDGIFWKHWIQTKDGQCGSPLVSTRDGFIVGIHSASNFTNTNNYFTSVPKNFMELLTNQEAQQWVSGWRLNADSVLWGGHKVFMVKPEEPFQPVKEATQL

Variants of: B1
Assay: raw area under fraction-flipped curve 0-4 h after induction (AUC4h, not background-subtracted), DNA-recorder readout of cleavage of the substrate (dimensionless); higher = more cleavage of the substrate by the protease variant
Conditions: temperature: 34 °C; time window: 0-4 h after rhamnose induction
Protocol: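 In vivo DNA recorder in E. coli TOP10(DE3) ΔrhaA at 34 °C. Each TEVp single-site mutant (parent TEVp 0) is paired with a single-site variant of the 7-mer TEVs (canonical ENLYFQ|S). The substrate sits between flexible linkers in a Bxb1-sfGFP-TEVs-SsrA fusion, so cleavage stabilises Bxb1 and speeds flipping of a recombination array, read by NGS. The value is the raw area under the fraction-flipped curve over 0-4 h after rhamnose induction (AUC4h), with ≥20 reads per time point. It is not background-subtracted; inactive controls average about 0.047.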
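Also: Bxb1 expression induced with 0.2% (w/v) L-rhamnose at OD600 near 0.5, cultures sampled hourly, flipped fraction per protease–substrate barcode pair counted by paired-end Illumina sequencing.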

Variant	area with substrate ENLYAQS	area with substrate ENLYDQS	area with substrate ENLYEQS	area with substrate ENLYGQS	area with substrate ENLYHQS	area with substrate ENLYIQS	area with substrate ENLYKQS	area with substrate ENLYMQS	area with substrate ENLYNQS	area with substrate ENLYPQS	area with substrate ENLYQQS	area with substrate ENLYWQS	area with substrate ENLYYQS	area with substrate ENLYRQS	area with substrate ENLYSQS	area with substrate ENLYVQS	area with substrate ENLYCQS	area with substrate ENLYTQS	area with substrate ENLYLQS
MGESLFKGPRDYNPISSSICHLTNESDGHTTSLYGIGFGPFIITNKHLFRRNNGTLVVQSLHGVFKVKDTTTLQQHLVDGRDMIIIRMPKDFPPFPQKLKFREPQREERICLVTTNFQTKSMSSMVSDTSCTFPSGDGIFWKHWIQTKDGQCGSPLVSTRDGFIVGIHSASNFTNTNNYFTSVPKNFMELLTNQEAQQWVSGWRLNADSVLWGGHKVFMVKPEEPIQPVKEATQL [F226I]	0.0973	0.0227	0.0762	0.0664	0.0518	0.129	0.0663	0.0766	0.0718	0.072	0.0684	0.0991	0.0626						
MGESLFKGPRDYNPISSSICHLTNESDGHTTSLYGIGFGPFIITNKHLFRRNNGTLVVQSLHGVFKVKDTTTLQQHLVDGRDMIIIRMPKDFPPFPQKLKFREPQREERICLVTTNFQTKSMSSMVSDTSCTFPSGDGIFWKHWIQTKDGQCGSPLVSTRDGFIVGIHSASNFTNTNNYFTSVPKNFMELLTNQEAQQLVSGWRLNADSVLWGGHKVFMVKPEEPFQPVKEATQL [W199L]	0.0376	0.0768		0.0679		0.0767		0.0725			0.0694			0.0513					
MGESLFKGYRDYNPISSSICHLTNESDGHTTSLYGIGFGPFIITNKHLFRRNNGTLVVQSLHGVFKVKDTTTLQQHLVDGRDMIIIRMPKDFPPFPQKLKFREPQREERICLVTTNFQTKSMSSMVSDTSCTFPSGDGIFWKHWIQTKDGQCGSPLVSTRDGFIVGIHSASNFTNTNNYFTSVPKNFMELLTNQEAQQWVSGWRLNADSVLWGGHKVFMVKPEEPFQPVKEATQL [P9Y]	0.0813	0.0677	0.0895		0.0712	0.12		0.0911	0.0835		0.0618	0.0793	0.0775	0.0525	0.0898	0.119			
MGESLFKGPRDYNPISSSICHLTNESDGHTTSLYGIGFGPFIITNKHLFRRNNGTLVVQSLHGVFKVKDTTTLQQHLVDGRDMIIIRMPKDFPPFPQKLKFREPQREERICLVTTNFQTKSMSSMVSDTSCTFPSGDGIFWKHWIQTKDGQCGSPLVSTRDGFIVGIHSASNFTNTNNYFTSVPKNFMELLTNQEAQQWVSGWRLNADSCLWGGHKVFMVKPEEPFQPVKEATQL [V210C]		0.0614	0.0605	0.0781	0.0639	0.164	0.0634	0.0893	0.072	0.0674	0.0639	0.0774	0.0662	0.0581	0.0766	0.122	0.115	0.0956	
MGESLFKGPRDYNPISSSICHLTNESDGHTTSLYGIGFGPFIITNKHLFRRNNGTLVVQSLHGVFKVKDTTTLQQHLVDGRDMIIIRMPKDFPPFPQKLKFREPQREERICLVTTNFQTKSMSSMVSDTSCTFPSGDGIFWKHWIQTKDGQCGSPLVSTRDGFIVGICSASNFTNTNNYFTSVPKNFMELLTNQEAQQWVSGWRLNADSVLWGGHKVFMVKPEEPFQPVKEATQL [H168C]		0.048			0.0504		0.0542				0.0605		0.0632		0.0584	0.0616	0.0691		
MGESLFKGPRDYNPISSSICHLTNESDGHTTSLYGIGFGPFIITNKHLFRRNNGTLVVQSLHGVFKVKDTTTLQQHLVDGRDMIIIRMPKDFPPFPQKLKFREPQREERICLVTTNFQTKSMSSMVSDTSCTFPSGDGIFWKHWIQTKDGQCGSPLVSTRDGFIVGIHSASNFTNTNNYFTSVPKPFMELLTNQEAQQWVSGWRLNADSVLWGGHKVFMVKPEEPFQPVKEATQL [N186P]	0.0715	0.0583	0.0851		0.055	0.0661	0.0595		0.0594	0.0792	0.0633		0.0484						0.0849
MGESLFKGPRDYNPISSSICHLTNESDGHTTSLYGIGFGPFIITNKHLFRRNNGTLVVQSLHGVFKVKDTTTLQQHLVDGRDMIIIRMPKDFPPFPQKLKFREPQREERICLVTTNFQTKSMSSMESDTSCTFPSGDGIFWKHWIQTKDGQCGSPLVSTRDGFIVGIHSASNFTNTNNYFTSVPKNFMELLTNQEAQQWVSGWRLNADSVLWGGHKVFMVKPEEPFQPVKEATQL [V126E]			0.123	0.0427	0.0711		0.034	0.0775	0.0692	0.0833	0.0563	0.0617		0.0677			0.0785		0.0973
MGESLFKGPRDYNPISSSICHLTNESDGHTTSLYGIGFGPFIITNKHLFRRNNGTLVVQSLHGVFKVKDTTTLQQHLVDGRDMIIIRMPKDFPPFPQKLKFREPQREERICLVTTNFQTKSMSSMVSDTSCTFPSGDGIFWKHWIQTKDGQCGSPLVSTRDGFIVGIHSASNFTNTNNYFTSVPKNFMELLTNQEAQWWVSGWRLNADSVLWGGHKVFMVKPEEPFQPVKEATQL [Q198W]		0.0605	0.108	0.0585	0.071	0.115	0.0402	0.0644			0.06		0.0635	0.0575		0.0697	0.0867		0.0769
MGESLFKGPRDYNPISSSICHLTNESDGHTTSLYGIGFGPFIITNKHLFRRNNGTLVVQSLHGVFKVKDTTTLQQHLVDGRDMIIIRMPKDFPPFPQKLKFREPQREERICLVTTNFQTKSMSSMVSDTSCTFPSGDGIFWKHWIQTKDGQCGSPLVSTRDGFIVGIHSASNFTNTNNYFTSVPKNFMELLTNQEAQEWVSGWRLNADSVLWGGHKVFMVKPEEPFQPVKEATQL [Q198E]	0.0858		0.0723	0.0593	0.0631	0.142	0.0562	0.105	0.0703	0.0657	0.0617			0.0702		0.16			
MGESLFKGPRDYNPISSSICHLTNESDGHTTSLYGIGFGPFIITNKHLFRRNNGTLVVQSLHGVFKVKDTTTLQQHLVDGRDMIIIRMPKDFPPFPQKLKFREPQREERICLVTTNFQTKSMSSMVSDTSCTFPSGDGIFWKHWIQTKDGQCGSPLVSTRDGFIVGIHSASNFTNTNNYFTSVPKNFMELLANQEAQQWVSGWRLNADSVLWGGHKVFMVKPEEPFQPVKEATQL [T192A]	0.0751	0.0508	0.0673	0.0639	0.0702	0.131	0.0554	0.0665	0.0669	0.0554		0.0654		0.0603	0.062	0.107			
